{"source": "PubChem BioAssay AID686979", "about": "(National Center for Advancing Translational Sciences (NCATS), 2013)", "note": "In all, about 420,000 compounds went through this assay and about 50,000 (12%) were called active. Inconclusive means that the source gave no clear call. Such entries were picked first, then a sample of the others. Calls follow the shape of the dose curve; as a rule, active = well fitted inhibition curve with a large enough effect; inconclusive = small, poorly fitted or top-dose-only effect; inactive = flat fitted curve, though single readings scatter. No potency is given beside an inconclusive call; the fits are too rough. % is scaled to controls: 0 for no effect and ±100 for the full control effect; potency is read from the fitted curve at half-maximal effect; tags tell the direction and shape of the fitted curve."}
{"experiment": "qHTS for Inhibitors of human tyrosyl-DNA phosphodiesterase 1 (TDP1): qHTS in cells in presence of CPT; also: nearly all actives have a fitted effect of over 55% in size", "conditions": "chicken DT40 Tdp1-/-;hTDP1 cells + 20 nM CPT, ATP luminescence, 48 h; activity change, negative = growth inhibition: at 46.2 µM (top of the series) unless noted", "summary_of_the_method": "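Chicken DT40 Tdp1-/- cells complemented with human TDP1, 400 cells/well, exposed to compounds plus 20 nM camptothecin for at least 48 h at 37 C; viability read as ATP content by CellTiter-Glo luminescence.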"}
{"smiles": "CCOC(=O)c1ccccc1NC(=O)CSc1nc2ncccc2[nH]1", "Potency": "inconclusive [inhibitor, partial curve]"}
{"smiles": "COc1ccccc1N(C)S(=O)(=O)c1ccc(C(=O)N(C)Cc2ccc(OC(F)F)cc2)cc1", "Potency": "active: 25.9 µM"}
{"smiles": "CC(NC(=O)COc1ccccc1)C(=O)N1CCN(c2ccccc2)CC1", "note": "(centres undefined)", "Potency": "inactive"}
{"smiles": "Cc1ccc(N=Nc2ccc(O)c3ncccc23)cc1", "Potency": "active: 13 µM"}
{"smiles": "COC(=O)c1cc(C(=O)NCCN2C(=O)S/C(=C\\c3cccs3)C2=O)cc([N+](=O)[O-])c1", "Potency": "inconclusive [inhibitor, single point]"}
{"smiles": "Cc1ccc(S(=O)(=O)c2[nH]c(-c3ccccc3)nc2SCC(=O)O)cc1", "Potency": "inactive"}
{"smiles": "COc1ccc(N2CCN(CC(O)COc3ccc(C(C)(C)C)cc3)CC2)cc1", "note": "(centres undefined)", "Potency": "inconclusive [inhibitor, partial curve]"}
{"smiles": "COC(=O)c1ccccc1COn1c(=O)c(C)[n+]([O-])c2ccccc21", "Potency": "inconclusive [inhibitor, single point]"}
{"smiles": "O=C(c1ccc(C(F)(F)F)cc1)C1CCCN(C(=O)c2cnccn2)C1", "note": "(centres undefined)", "activity change, negative = growth inhibition": "inconclusive: -34% [inhibitor]"}
{"smiles": "O=C1OC(Nc2ccc3c(c2)OCO3)c2ccccc21", "note": "(centres undefined)", "Potency": "active: 22.4 µM"}
{"smiles": "CC(=O)OCCCNc1cc(Sc2ccc(Cl)cc2)c2nonc2c1[N+](=O)[O-]", "Potency": "active: 2.06 µM"}
{"smiles": "CN(C)c1ccc(/C=N/N=C(N)N)cc1[N+](=O)[O-]", "Potency": "inconclusive [inhibitor, single point]"}
{"smiles": "Cc1ccc2c(CNCCc3ccc(Cl)cc3)c(C(=O)O)n(Cc3ccc(F)cc3)c2c1", "Potency": "inconclusive [inhibitor, single point]"}
{"smiles": "CCOc1ccc2[nH]cc(C(=O)NCc3ccc(F)cc3)c(=O)c2c1", "Potency": "inconclusive [inhibitor, partial curve]"}
{"smiles": "Cc1cccn2c(=O)c3cc(C(=O)O)n(C)c3nc12", "Potency": "inactive"}
{"smiles": "CCOC(=O)c1ccc(NC(=O)CC2C(=O)N(c3ccccc3)C(=O)N2Cc2cccs2)cc1", "note": "(centres undefined)", "Potency": "inconclusive [inhibitor, single point]"}
{"smiles": "O=C(COC(=O)Cn1cnc2ccccc21)NCCc1ccccc1", "Potency": "inactive"}
{"smiles": "Cc1c(C(C)(C)O)[nH]c2cc(C(F)(F)F)ccc12", "Potency": "inconclusive [inhibitor, single point]"}
{"smiles": "Cc1ccc(C(C(=O)NC(C)(C)C)N(CCCN2CCOCC2)C(=O)c2ccc(-c3ccccc3)[nH]2)o1", "note": "(centres undefined)", "Potency": "inactive"}
{"smiles": "CC1(C)CC(=O)C2=C(C1)N=C1c3ccccc3C(=O)C1C2c1ccc(Cl)cc1", "note": "(centres undefined)", "Potency": "inconclusive [inhibitor, single point]"}
{"smiles": "CCCCC(=O)N(Cc1ccc2c(c1)OCO2)Cc1nc2ccccc2c(=O)[nH]1", "Potency": "inconclusive [inhibitor, single point]"}
{"smiles": "CCCNc1nc2c(c(=O)n(C)c(=O)n2C)n1Cc1cccc(C)c1", "Potency": "active: 7.31 µM"}
{"smiles": "Cc1ccc(S(=O)(=O)N2CCN(C(=O)C3=COCCO3)CC2)cc1C", "Potency": "inconclusive [inhibitor, partial curve]"}
{"smiles": "O=c1c2sc3ccccc3c2n(Cc2ccccc2)c(=O)n1Cc1ccccc1", "Potency": "inactive"}
{"smiles": "COc1ccccc1NC(=O)c1ccc(Br)c(S(=O)(=O)N2CCCC2)c1", "Potency": "inconclusive [inhibitor, partial curve, poor fit]"}
{"smiles": "O=C1/C(=C/Nc2cccc([N+](=O)[O-])c2)CCc2ccccc21", "Potency": "inactive"}
{"smiles": "CCn1ncc(Br)c1C(=O)Nc1cc([N+](=O)[O-])ccc1C", "Potency": "inactive"}
{"smiles": "Oc1ccc(/C=N/Nc2ccc(Cl)nn2)c(O)c1O", "Potency": "inconclusive [inhibitor, single point]"}
{"smiles": "CCC(=O)N1c2ccccc2CC1C(=O)N1CCN(c2ccccc2)CC1", "note": "(centres undefined)", "Potency": "inconclusive [inhibitor, partial curve, poor fit]"}
{"smiles": "COc1ccc([C@@H]2[C@@H]3C(=O)N(C(C)(C)C)C(=O)[C@@H]3[C@]3(Cc4ccc(Cl)cc4)C(=O)N(c4cccc(F)c4)C(=O)N23)cc1", "Potency": "inconclusive [inhibitor, single point]"}
{"smiles": "CCc1ccc(CN(C(=O)c2nc(SC)ncc2Cl)C2CCS(=O)(=O)C2)cc1", "note": "(centres undefined)", "Potency": "inconclusive [inhibitor, partial curve]"}
{"smiles": "COc1cc(CNC(=O)Nc2nc(C(N)Cc3ccc(Cl)cc3)cs2)cc(OC)c1OC", "note": "(centres undefined)", "Potency": "inconclusive [inhibitor, single point]"}
{"smiles": "Cc1nc2ccc(-c3nc4ccccc4[nH]3)cc2[nH]1", "Potency": "inconclusive [inhibitor, single point]"}
{"smiles": "Cc1ccc(Cl)cc1NC(=O)c1ccc(-c2nc(CSc3ccccc3)c(C)o2)cc1", "Potency": "active: 9.2 µM"}
{"smiles": "Cc1ccc(C(=O)C(=O)c2ccc(C)c(N)c2)cc1N", "Potency": "inconclusive [inhibitor, single point]"}
{"smiles": "CC(C)c1ccc(OCCCCN2CCCCC2)cc1", "Potency": "inconclusive [inhibitor, single point]"}
{"smiles": "COc1ccc(Cn2c(C3CC3)nc3ccc(NC(=O)C4CC4)cc3c2=O)cc1", "Potency": "inactive"}
{"smiles": "Cc1nnc2n(Cc3ccccc3)c(=O)c3c4c(sc3n12)COC(C)(C)C4", "Potency": "inactive"}
{"smiles": "CCOC(=O)C1C(=O)C=C(c2ccc(C)cc2)CC1c1ccc([N+](=O)[O-])cc1", "note": "(centres undefined)", "Potency": "inconclusive [inhibitor, single point]"}
{"smiles": "Cc1ccc(Cl)cc1NC(=O)NCc1cccnc1", "Potency": "inactive"}
{"smiles": "CCCCCn1c(=NC(=O)c2ccco2)c(C(=O)OCC)cc2c(=O)n3ccccc3nc21", "Potency": "active: 16.4 µM"}
{"smiles": "CC(Nc1ccccc1N1CCCCC1)C(=O)N1CCc2ccccc21", "note": "(centres undefined)", "Potency": "inconclusive [inhibitor, single point]"}
{"smiles": "CSc1nc(-c2ccccc2)nn1C(=O)c1ccccc1", "Potency": "inconclusive [inhibitor, single point]"}
{"smiles": "CCOC(=O)C1=C(C)NC(C)=C(C(=O)OCC)C1c1cccc([N+](=O)[O-])c1", "Potency": "inconclusive [inhibitor, partial curve, poor fit]"}
